# Measurements: PubChem BioAssay (Tox21)
# “And” between values parts separate entries of the source, which are not always exact repeats. Identical values can stand only once. The shares of active, inactive and inconclusive entries below differ from those in the screen. Potencies beside an inconclusive call are fits to weak or partial responses and may not hold up. The source made the active and inactive calls. The call rests on the fitted dose curve; in most records, active means well fitted activation curve with a large enough effect in the signal ratio in the repeat runs (not every such curve was filed as active); inconclusive means weak or mixed curves, or effect the other way; inactive means no such curve, though single readings can be large or run the other way; the % refers to the signal ratio.
# Biological target: Peroxisome proliferator-activated receptor gamma (Homo sapiens) (UniProt P37231)
# Sequence of UniProt P37231 (P37231 whole entry, looked up): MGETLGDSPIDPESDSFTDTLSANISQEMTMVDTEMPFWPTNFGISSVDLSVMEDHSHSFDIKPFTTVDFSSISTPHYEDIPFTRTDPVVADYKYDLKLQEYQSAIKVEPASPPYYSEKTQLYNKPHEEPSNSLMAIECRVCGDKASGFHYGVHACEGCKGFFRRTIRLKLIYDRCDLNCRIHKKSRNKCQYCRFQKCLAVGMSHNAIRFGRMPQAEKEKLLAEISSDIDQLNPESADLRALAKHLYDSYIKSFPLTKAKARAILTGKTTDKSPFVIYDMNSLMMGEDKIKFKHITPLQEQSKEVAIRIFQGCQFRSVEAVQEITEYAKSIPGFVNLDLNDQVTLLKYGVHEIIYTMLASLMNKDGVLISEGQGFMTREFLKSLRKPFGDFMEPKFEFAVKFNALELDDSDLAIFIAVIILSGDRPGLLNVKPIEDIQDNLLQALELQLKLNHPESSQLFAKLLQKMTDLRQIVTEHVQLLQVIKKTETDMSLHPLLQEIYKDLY
# Test: qHTS assay to identify small molecule agonists of the peroxisome proliferator-activated receptor gamma (PPARg) signaling pathway (AID 743094)
# Settings: HEK293H PPARg-UAS-bla, beta-lactamase FRET ratio, 17 h; activation: at 57 µM (top of the series) unless noted
# Summary of the method: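 Compounds dissolved in DMSO were added to PPARg UAS-bla HEK293H cells for 17 h at 37C, and reporter expression was quantified by fluorescence intensity after 1 h with LiveBLAzer B/G FRET substrate.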
# On the % scale 0 is the no-effect control and ±100 the full control effect; potency means the concentration at half of the fitted maximal effect; tags describe the fitted curve by direction and shape or compound fluorescence and quenching.
Compound,activation,Potency
Oc1c(Cl)cc(Cl)c2cccnc12,inconclusive: -1.18%,
CC1=C(/C=C/C(C)=C/C=C/C(C)=C\C=O)C(C)(C)CCC1,,"inconclusive: 3.68 µM [activator, full curve, poor fit]"
Clc1ccc2n[nH]nc2c1,,"inconclusive: 27.5 µM [activator, partial curve]"
Clc1nc(C(Cl)(Cl)Cl)c(Cl)c(Cl)c1Cl,,"inconclusive: 1.38 µM [activator, full curve, poor fit]"
CC(=O)c1ccc(S(=O)(=O)NC(=O)NC2CCCCC2)cc1,,inactive
CCCCCCCCCCCCN1CCCC1=O,,inactive
C=CC(=O)OCC(CO)(COCC(COC(=O)C=C)(COC(=O)C=C)COC(=O)C=C)COC(=O)C=C,,"inconclusive: 4.31 µM [fluorescent, full curve]"
CC(C)(C)c1ccc(O)c(O)c1,inconclusive: -12.4%,
C=CC(=O)OCCOCCOCCOCCOC(=O)C=C,,"inconclusive: 39.1 µM [fluorescent] and inconclusive: 38.5 µM [fluorescent, partial curve, poor fit]"
CN[C@H]1CC[C@@H](c2ccc(Cl)c(Cl)c2)c2ccc(S(N)(=O)=O)cc21,,inconclusive: 61.6 µM [single point]
O=c1n(CC2CO2)c(=O)n(CC2CO2)c(=O)n1CC1CO1 (configuration not stated),,"inconclusive: 23.9 µM [fluorescent] and inconclusive: 24.4 µM [fluorescent, partial curve] and inconclusive: 27.5 µM [fluorescent, partial curve]"
C[C@H]1O[C@@H](O[C@H]2CC[C@@]3(C)[C@H](CC[C@@H]4[C@@H]3C[C@@H](O)[C@]3(C)[C@@H](C5=CC(=O)OC5)CC[C@]43O)C2)C[C@H](O)[C@@H]1O[C@H]1C[C@H](O)[C@H](O[C@H]2C[C@H](O)[C@H](O[C@@H]3O[C@H](CO)[C@@H](O)[C@H](O)[C@H]3O)[C@@H](C)O2)[C@@H](C)O1,,"inconclusive: 0.848 µM [fluorescent, full curve]"
CCC(C)(C)c1cc(O)c(C(C)(C)CC)cc1O,inconclusive: -16.3%,
COc1cc(-c2nc(NC(=O)c3cc4cc(C)cc(C)c4n3CC(=O)O)sc2CCC2CCCCC2)c(OC)cc1Cl,,active: 35.7 µM
CCCCC(CC)CN=C(N)NC(N)=NCCCCCCN=C(N)NC(N)=NCC(CC)CCCC (configuration not stated),,"inconclusive: 26.8 µM [cytotoxic, single point]"
Cc1ccc(-c2cc(C(F)(F)F)nn2-c2ccc(S(N)(=O)=O)cc2)cc1,,"inconclusive: 21.8 µM [rising, partial curve, poor fit]"
CC1=CC(=O)c2ccccc2C1=O,,inconclusive: 30.9 µM [fluorescent]
CC(CN1c2ccccc2Sc2ccccc21)N(C)C (configuration not stated),inconclusive: -8.66% [at 78.9 µM],
CN(C)C(=O)C1(N2CCCCC2)CCN(CC[C@@]2(c3ccc(Cl)c(Cl)c3)CN(C(=O)c3ccccc3)CCO2)CC1,,inconclusive: 57.6 µM [single point]
CCCCCCCCCCCCCC[P+](CCCC)(CCCC)CCCC (tested in a mixture with another compound),,inconclusive: 34.9 µM [partial curve]
[Cl][Bi]([Cl])([c]1ccccc1)([c]1ccccc1)[c]1ccccc1,inconclusive: 28.7%,
C[C@@H](NCCCc1cccc(C(F)(F)F)c1)c1cccc2ccccc12,,"inconclusive: 26.8 µM [cytotoxic, single point]"
CCCCCCCCCCCCCCCCCC[N+](C)(C)C,,inconclusive: 61.9 µM [single point]
CCN(CC)C(=S)SSC(=S)N(CC)CC,,"inconclusive: 120 nM [activator, full curve, poor fit] and inconclusive: 69.2 nM [activator, full curve, poor fit] and inconclusive: 89.1 nM [activator]"
CC(O)(c1ccc(Cl)cc1)c1ccc(Cl)cc1,inconclusive: -11.1%,
Cc1cc(F)ccc1-c1cc(N2CC[C@@H](O)[C@H]2CO)ncc1N(C)C(=O)C(C)(C)c1cc(C(F)(F)F)cc(C(F)(F)F)c1,,"inconclusive: 24.2 µM [falling, full curve]"
C[C@]12CC[C@@H]3c4ccc(O)cc4CC[C@H]3[C@@H]1CC[C@@H]2OC(=O)CCC1CCCC1,,"inconclusive: 61.6 µM [falling, partial curve, poor fit]"
